Source: the supplement of paper PMC4166925
± gives the standard deviation of the averaged measurements. Over roughly 33,000 sequences, “E-score (dimensionless, -0.5 to 0.5)” has its median near -0.049; the highest 2% begin near 0.37. Some of the results follow.

System: T1, PmTbr T-box DNA-binding domain (GST fusion)
T1 sequence: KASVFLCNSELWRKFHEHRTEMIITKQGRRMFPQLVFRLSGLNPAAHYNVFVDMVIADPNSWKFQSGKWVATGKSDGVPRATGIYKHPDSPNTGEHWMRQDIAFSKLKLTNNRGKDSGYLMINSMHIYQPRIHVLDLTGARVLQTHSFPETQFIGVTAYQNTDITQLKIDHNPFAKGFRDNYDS
Assay: PBM E-score of 8-mer (E-score (dimensionless, -0.5 to 0.5)); Tbr is Tbrain of the sea star Patiria miniata (Pm) or the sea urchin Strongylocentrotus purpuratus (Sp); higher = stronger binding preference; most listed sequences are background and not binding sites
Conditions: the construct has about 5 more residues each side
Summary of the method: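 GST-fused Tbr T-box DNA-binding domains (the whole T-box plus about five flanking residues) were expressed in BL21 E. coli at 20 °C and purified by glutathione affinity chromatography. Universal Agilent oligonucleotide arrays were made double-stranded by primer extension, incubated with 200 nM protein in PBS (pH 7.5), then scanned and quantified. Every ungapped 8-mer was scored from probe intensities. The Universal PBM Analysis Suite gave each word an enrichment E-score, averaged over duplicate arrays.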

| Sequence | PBM E-score of 8-mer |
| --- | --- |
| GGTCTGAC | -0.028 ± 0.0057 |
| CTGTCCAA | 0.0281 ± 0.015 |
| CTTACTTC | 0.108 ± 0.042 |
| CGAAAGTA | 0.0451 ± 0.011 |
| GGGCGCCA | 0.106 ± 0.037 |
| CCACCCTA | 0.0728 ± 0.0043 |
| GACTCGGA | -0.0623 ± 0.05 |
| CCATTTCG | 0.142 ± 0.013 |
| CCGATTAG | -0.0218 ± 0.091 |
| AACATAAC | 0.0694 ± 0.022 |
| CCATTTAG | 0.0961 ± 0.098 |
| ATCCTGGG | -0.241 ± 0.038 |
| TCTTGTAA | -0.0426 ± 0.056 |
| CACCTGGA | 0.366 ± 0.025 |
| CTCGGTTA | -0.127 ± 0.016 |
| ACGGAAGG | 0.0668 ± 0.038 |
| CTATCAAA | -0.0263 ± 0.041 |
| TCAAGCCA | -0.0989 ± 0.067 |
| CTCCGGGC | -0.166 ± 0.032 |
| CCCCGAGC | -0.011 ± 0.026 |
| AGATGCTG | -0.149 ± 0.035 |
| GAAAGGTA | -0.0552 ± 0.022 |
| GCGTGCCC | -0.343 ± 0.035 |
| CCTACGAG | -0.0896 ± 0.0048 |
| CCTAGAGA | -0.0665 ± 0.085 |

| Sequence | PBM E-score of 8-mer |
| --- | --- |
| GCAGCTGC | -0.0758 ± 0.015 |
| TCGGCGCA | -0.241 ± 0.034 |
| AAAAACCC | -0.0589 ± 0.081 |
| CTAGTGTA | 0.0738 ± 0.061 |
| GATGCTCC | -0.157 ± 0.044 |
| GTTTCATA | -0.259 ± 0.04 |
| CGCAACGA | -0.0323 ± 0.071 |
| ATTTCAGA | -0.159 ± 0.017 |
| AACTTCGG | -0.0335 ± 0.087 |
| TTCGGCAA | 0.0917 ± 0.035 |
| CAGATGCG | -0.135 ± 0.048 |
| CTCAAAAA | 0.132 ± 0.093 |
| AAACTAGG | -0.128 ± 0.11 |
| GTTGAACA | -0.0347 ± 0.1 |
| GGTCCCCA | -0.0432 ± 0.058 |
| CGTTCCAA | 0.0337 ± 0.021 |
| TAAGAAAA | -0.169 ± 0.12 |
| GCCCGTAC | -0.227 ± 0.068 |
| CCACAAAC | 0.0201 ± 0.024 |
| AGCCCTCA | -0.0517 ± 0.014 |
| GGTCTGCA | -0.153 ± 0.067 |
| CGCTACGC | 0.15 ± 0.055 |
| ACGCTCAT | -0.0967 ± 0.08 |
| ATTTCGGG | 0.0944 ± 0.047 |
| AAAGGGAC | -0.17 ± 0.05 |

| Sequence | PBM E-score of 8-mer |
| --- | --- |
| ACTGGTAT | -0.0656 ± 0.043 |
| ACTCGACA | 0.248 ± 0.0043 |
| CTTTATAA | -0.165 ± 0.077 |
| CTACGATC | -0.00343 ± 0.0069 |
| CGGCGTAG | -0.142 ± 0.042 |
| ACATTTAC | -0.01 ± 0.069 |
| ACAATTGC | 0.191 ± 0.044 |
| ACCGGGTC | 0.0499 ± 0.079 |
| CTAAAGGC | 0.0477 ± 0.0078 |
| CGTTTTTA | -0.0355 ± 0.06 |
| GGGCATAC | -0.246 ± 0.11 |
| CCTAGTGA | 0.157 ± 0.0087 |
| ATTCAGAC | -0.195 ± 0.019 |
| CTCTGTCA | 0.105 ± 0.032 |
| CCTTACCC | -0.182 ± 0.013 |
| CATACGAG | -0.128 ± 0.04 |
| AATACCCT | -0.0692 ± 0.063 |
| CTTCTATA | -0.287 ± 0.067 |
| GCGCAGGA | -0.0924 ± 0.067 |
| AAAGCTTG | -0.122 ± 0.017 |
| GGGTTCTA | 0.00309 ± 0.029 |
| AGTGAGGA | 0.2286 ± 0.001 |
| AAAAGCCC | -0.255 ± 0.028 |
| AAGGTTGT | 0.0754 ± 0.05 |
| CCCGCACA | 0.068 ± 0.063 |

| Sequence | PBM E-score of 8-mer |
| --- | --- |
| TTAACTAA | -0.185 ± 0.0079 |
| GCAAAGTA | -0.18 ± 0.015 |
| TCCCCACA | 0.168 ± 0.026 |
| AACCTGGG | -0.0909 ± 0.015 |
| AAATTCTA | -0.0773 ± 0.07 |
| ACGGATCA | 0.0425 ± 0.074 |
| CCGGTATA | -0.152 ± 0.0044 |
| GCTTTGCC | -0.119 ± 0.007 |
| AGCGGCGA | 0.015 ± 0.044 |
| AGTCAATA | -0.25 ± 0.033 |
| GCTTCCAA | -0.314 ± 0.015 |
| CCCACCCG | 0.105 ± 0.0088 |
| AACTTCGT | -0.129 ± 0.026 |
| GTTTTTGA | 0.0403 ± 0.011 |
| ATGTACTC | -0.188 ± 0.01 |
| ACCCAATG | -0.152 ± 0.018 |
| ACGGCATC | -0.172 ± 0.02 |
| GTTGTGCA | 0.0183 ± 0.032 |
| AAGACGGT | -0.0541 ± 0.02 |
| CCGGTGGC | -0.00886 ± 0.016 |
| GCCTTCTA | 0.0362 ± 0.05 |
| AGCCTCAA | -0.254 ± 0.0068 |
| ACCTTATC | 0.149 ± 0.034 |
| ACAGGCAG | -0.00115 ± 0.046 |
| ACACCTGA | 0.4657 ± 0.0021 |

| Sequence | PBM E-score of 8-mer |
| --- | --- |
| AAGGAATC | -0.0838 ± 0.12 |
| GTTAGCGA | 0.319 ± 0.018 |
| ATGCTTCC | -0.196 ± 0.015 |
| ATTACCCG | -0.123 ± 0.019 |
| CTCCGCTC | -0.214 ± 0.0052 |
| ACACGGCA | 0.0195 ± 0.041 |
| TCAGCTCA | -0.041 ± 0.037 |
| CATCAATG | -0.00592 ± 0.0072 |
| CTGTTCAC | 0.263 ± 0.012 |
| CACTGACA | 0.245 ± 0.011 |
| AAAGTCTG | -0.163 ± 0.067 |
| CTCCGGTA | -0.0682 ± 0.046 |
| GCAGGGGC | -0.193 ± 0.12 |
| GTCTGATA | -0.0666 ± 0.023 |
| AGAAACCG | -0.0946 ± 0.0052 |
| CGCTCTAC | -0.148 ± 0.022 |
| TATTGGAA | -0.2498 ± 0.0018 |
| ACTTTACA | 0.246 ± 0.086 |
| CAGCGCAC | 0.0473 ± 0.14 |
| ATTGCCGG | 0.00979 ± 0.029 |
| AGGCTCGG | -0.0598 ± 0.031 |
| CCCGACTA | 0.00639 ± 0.076 |
| CGGATAAA | -0.196 ± 0.013 |
| TCGGGAAA | -0.0866 ± 0.018 |
| GTCTAATA | -0.208 ± 0.027 |

| Sequence | PBM E-score of 8-mer |
| --- | --- |
| TATGATAA | -0.0124 ± 0.036 |
| AAACGCAT | -0.324 ± 0.019 |
| ATTTGACA | 0.327 ± 0.0078 |
| CCATCCGA | -0.298 ± 0.078 |
| ATAATCAA | 0.0151 ± 0.0051 |
| GCAATTTA | -0.00664 ± 0.054 |
| AGAGTGCC | -0.0362 ± 0.13 |
| CGGCGGAG | -0.127 ± 0.044 |
| CTAAGGGC | 0.0728 ± 0.063 |
| AAAGTAGA | -0.0946 ± 0.036 |
| GATCGCTA | 0.15 ± 0.022 |
| GCACTGGA | -0.0659 ± 0.015 |
| CTCGACGA | -0.0245 ± 0.043 |
| CCTGCTCG | -0.0468 ± 0.049 |
| GCCAATCC | 0.0146 ± 0.011 |
| CTCAGGGA | -0.225 ± 0.012 |
| ATGCGGCA | 0.0459 ± 0.056 |
| ACGTATAG | -0.0944 ± 0.066 |
| GACTAAAA | -0.038 ± 0.085 |
| AACTTACC | -0.0471 ± 0.021 |
| CTAACAAC | 0.338 ± 0.018 |
| GTTTCCAA | -0.165 ± 0.02 |
| ATGCGCAG | -0.129 ± 0.06 |
| ATAGGATA | -0.243 ± 0.03 |
| AGTCCCTA | -0.123 ± 0.027 |

| Sequence | PBM E-score of 8-mer |
| --- | --- |
| GGGTCAAA | -0.282 ± 0.013 |
| CGGGGCGC | 0.154 ± 0.0063 |
| ACGGCGGG | 0.0264 ± 0.002 |
| GGAGCAAA | -0.157 ± 0.037 |
| TTCAGAAA | -0.227 ± 0.084 |
| CAAGCCTC | -0.091 ± 0.046 |
| CCAAACCC | -0.0465 ± 0.11 |
| AACAGGCC | -0.118 ± 0.0077 |
| ATGTAATG | -0.2496 ± 0.0015 |
| TAATTGGA | -0.0622 ± 0.014 |
| AAGTTTCG | -0.0542 ± 0.037 |
| AAGTGATA | 0.37 ± 0.025 |
| ACCTCAAT | -0.0399 ± 0.019 |
| CGAATATA | -0.132 ± 0.019 |
| CGATCAGA | -0.0993 ± 0.12 |
| AGTACTTG | 0.0729 ± 0.0017 |
| CGGGCACA | 0.101 ± 0.0054 |
| CTCCAGGA | -0.18 ± 0.013 |
| GCCGATAA | 0.0873 ± 0.022 |
| CACGGAGA | 0.00222 ± 0.037 |
| AACATGTT | 0.0354 ± 0.022 |
| TAAAATCA | 0.0751 ± 0.019 |
